Test results as given in the RNAGym collection of RNA variant scans (doi:10.7554/elife.90254).
Read counts are not given, so values of variants with three or more changes are uncertain.

B1: LINE1-mini (parent)
chain: GGCAGAGCUCAACACAGCGUGGCAAAGUGGCUGUGGCUAGACUGCC

Variants of: B1
Experiment: self-cleavage, relative activity (ratio to wild type); higher = more cleavage; in vitro, sequencing; the parent is a self-cleaving ribozyme

Variant | self-cleavage
G1U A11U G17U U28A G29U G36A | 0.01
G2A C18G U38A C46G | 0.06
G17A G40C U43C | 0.01
C8A C10U C15U G30A C37G | 0.09
G2C A14G G35C | 0.03
G7A G19U C45U | 0.13
A6U C13U G17A G22U G36A | 0.19
C10A G19U A39G | 0.01
U20A G27A G30A | 0.87
A4C A12C G21U G29U G35C | 0.03
C13A C15G G29U G33C | 0.04
G7A C8G G19C G33A | 0.02
G5C A14U A24C C45A | 0.03
C3A G7U A26C G30C | 0.12
C8A C18A G19U U20C C23A C31A C37U G44U | 0.02
C10G A12U C15A C23G A26U A39G | 0.01
A11U G21U A39G C45G | 0.01
G1U A4C U20A G21U G40U C45A | 0.04
G22U U32A U34A | 0.2
C3A G17A A39G A41G | 0.02
U9C A26G G33C U38G | 0.02
C13U A26C A41C | 0.03
A4U A12U C18A | 0.13
G1C C15U C23A A39C | 0.05

Variant | self-cleavage
G7A C10A A14U C37G | 0
C31U G33C U38A | 0.08
A14U G17C G35A | 0.06
A11U A14U C31U | 0
A16C G17A C18G G40A | 0.06
G1C A14G G19A G27A | 0.17
A11G C15A G33C | 0.03
C3U C18U G30U | 0.55
A6G C10A A12G C23U G29U | 0.01
C8A C15U A39U G40C | 0.63
C10G G19A G40U | 0.03
G1U C10A G21C A26G | 0
A12C G30U G33U A39U | 0.06
A16G C18G G22C C23A G30U C31A | 0.02
C8A U28A A39C C42G U43G | 0.05
G5U G22A C46U | 0.05
U9C G17U G40A U43C | 0.02
G1A G2U C10U A14C C18U U28A C42G | 0.03
G5A C13U A14U G40A C45A | 0.04
G35U G40U A41U | 0.53
G2U A12G U20A | 0
G5A C10G G21C C31A A41U | 0
C13U C15G A24C A26C G27U | 0.01
G7A C10G C13U G36C U43A | 0.02

Variant | self-cleavage
A6U C31G C37A C42U C46A | 0.02
G5U G7U C31U U38A | 0.04
G40C C42U C45U | 0.08
G5U C15A A24G G29C | 0.03
G7U A16G U20A | 0.1
C3G A24G G40U | 0.04
G5C C13A G36U | 0.01
A16G G30U C31U C45G C46G | 0.03
A26U G40U A41C | 0.05
G1U A12C G19C | 0
U9C A41U G44A | 0
C3A C15U C31U | 0.28
C8A G19C U20A C23U U34C | 0
A11U A12G G17C | 0
G1C C15A G17A G21U | 0.02
A6C G7A C8G G29U | 0.07
A16U G29U G36A C37U | 0.1
C3U C31A C37A | 0.05
A6U A26G U32C C37U A39C | 0.12
A4G C10A A12G U28C G29C | 0
G1A C3U C8G | 2.33
C23G G40U U43C | 0.03
G7C A16G C18U G33U | 0.02
A4C C10G G19C A24U | 0.02

Variant | self-cleavage
C18G G21U C31A U38A G44A | 0.12
C3A G19U C23U G30A A41C | 0.09
G19A A26C U32A C42A | 0.02
A4G G30C C31G G33U | 0.15
G5U C23G C31A | 0.01
A6U C10A C23A G30U | 0.02
G2U G5U C8G G27U G33U | 0.01
C10U A12U A25G | 0.11
C3U U28C U34A A39U | 0.03
G1A A4C G40A | 0.07
C18A A24U U43A | 0.03
G2U G22C C46U | 0.22
G5A C10A C23U | 0.02
G5A G21A G22C A24U G33C C42A | 0.05
C15U G40U U43G | 0.07
G7U C8A U43A | 0.09
G17A G21A G29A | 0.62
G5A A11U G19C | 0.04
C13U A14C C42G | 0.11
G7C G33U G36U C37U U43G | 0
G5U G30A U34A | 0.05
G17A C31U G40U C45A | 0.02
A6G U9G C13G | 0.23
A4C G7U C15U A24C C45A | 0.49

Variant | self-cleavage
C8A A14C G40C C46G | 0.14
A11C G19U G29C C46G | 0.14
C13U G22C C31A | 0.03
C3A G7C U34A | 0.01
C13U A14U C45U | 0.04
C3A A4U C18U G27U C45G | 0.19
C10A A11C G30C | 0.02
G5A A6U G19U U28A C37A | 0.01
A12G C15U G22A | 0
A4U G5A U20C | 0.84
A12G C18A C45G | 0.3
C15A G19A U38A C46U | 0.05
A4U G7U G21A G27C G36A | 0.37
G21U G33A G35U G36A | 0.25
G2C C3A A4G G5C G17A C18U | 0.04
G1U G5U U9A | 0.02
C10A G33A U34G | 0
A12C G36A A41G | 0.09
A26G G27U G29C G30U A41U C42G | 0.17
A6U G33C C46G | 0.07
G2C G5C U20G G21U | 0.01
G17C C37A C42G | 0.02
U9A C15A G35A A41U | 0.13
C18U G22A C46A | 0.81

Variant | self-cleavage
G1C U9C G22U U34G | 0.01
G17C G22A G35C G40C C46A | 0.1
G2A G7C G35C | 0.16
G5U G29C G36U A41G | 0.02
G5C G33U U43A | 0.02
C8A U20G G22A U28A U38C | 0.05
G1A G21A A26C | 2
A6G C15A G36U | 0.04
A11U C13A G19U A26U U34A G36U U38A | 0.01
C10G C18G G22U G27U U28C C31U G36C | 0.01
A6C U20C G30U | 0.53
U9A C37G C46U | 0.05
G1U A14U U20C A25C | 0.13
C3U G22U G33U C42A | 0.15
G1U A12G G30A | 0.01
U20A A25U G30U U32C | 0.05
A4C C10U C37A | 0.09
C8A G17A U38A U43A | 0.17
C18A A25U G44U | 0.03
C8A G19U A39G G44C | 0.02
U9A G36A A41C C45G | 0.03
G5U U9A A26C | 0.02
C3U C15U G21U | 0.27
A6U U28C G40C | 0.02

Variant | self-cleavage
A25G G35U C42U | 0.18
G7C C10G G29U A41U C42A | 0.01
G36A A39C G40U C46A | 0.1
C15A G17C C18G G33C | 0.01
G22C G29A C37U U38G | 0
A24C G30U C45G | 0.05
A39U U43G G44C | 0.15
A6G G19C A26C | 0.03
G30C U38G C42U | 0.06
G2C G27C U43C | 0.09
G1A A4C A12U U20G G21U | 0.24
G17A G33U C45U | 0.03
C10A G40U C46U | 0.03
C31U A41C C42G | 0.04
G5A G17C G30A C31U G40U C42A C46A | 0.04
C3A G19C C42A | 0.07
A4C A16C G17C | 0.09
G1C G5U A14U C23U G27C G30A U38C | 0.03
C3A C13G G36C | 0.14
G5U A6U U20G | 0.08
C8U U9C C13G | 0.11
U28G U38G C42G | 0.01
A14G A16G G22U | 0.07
